These are yes or no findings as the source states them, for the method shown. Some results given as binding are weak or reduced against the parent protein; the word gives no strength.
Columns and labels:
[1] = target: T1, outer membrane protein C (OmpC) of E. coli K-12, endogenous on BW25113 cells and its LPS mutants (E. coli K-12 (endogenous in BW25113)) (UniProt P06996); assay: phage adsorption assay
T1 sequence: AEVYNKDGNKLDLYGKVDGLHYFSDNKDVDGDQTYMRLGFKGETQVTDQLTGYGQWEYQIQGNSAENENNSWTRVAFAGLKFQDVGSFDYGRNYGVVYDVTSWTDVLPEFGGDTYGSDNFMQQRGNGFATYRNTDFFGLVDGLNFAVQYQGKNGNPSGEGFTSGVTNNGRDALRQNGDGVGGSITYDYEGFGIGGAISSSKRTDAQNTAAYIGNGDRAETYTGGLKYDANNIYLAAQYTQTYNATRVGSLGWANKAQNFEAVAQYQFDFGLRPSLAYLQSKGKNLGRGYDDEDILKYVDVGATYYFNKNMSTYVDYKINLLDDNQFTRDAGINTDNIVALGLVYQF

[2] = target: T2, E. coli K-12 OmpC expressed from pBAD33-ompC(K-12) on E. coli O157 ∆waaJ ∆ompC cells (E. coli K-12 (W3110)) (UniProt P06996); assay: phage adsorption assay
T2 sequence: T1 sequence

Substance | binding [1] | binding [2]
bacteriophage T4 long tail fiber protein gp37 (distal tip, DT), wild type, on T4D phage particles (from UniProt P03744 1-1026) | binds | binds
gp37 of T4 mutant Nik1 (V941E), on phage particles (from UniProt P03744 1-1026) | no binding | 
gp37 of T4 mutant Nik2 (A955E), on phage particles (from UniProt P03744 1-1026) | no binding | 
gp37 of T4 mutant Nik8 (G943S), on phage particles (from UniProt P03744 1-1026) | no binding | 

Source: PMC5221442
